# Hit rate of the full screen: of about 39,000 compounds, about 220 (0.56%) showed activity. This is one part of the list.
# Tested on: Escherichia coli K-12 BW25113
# Assay: relative growth (OD600 normalised to plate interquartile mean) (fraction); higher = less growth inhibition, active = 0.2 or less
# Settings: 50 µM; LB; incubation time: overnight (16-24 h)
# 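Further: static incubation at 37 °C against the wild-type strain, values averaged over two biological replicates.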
row,Structure (SMILES),relative growth
1,C[C@@H]1CCCCO[C@@H](CN(C)Cc2ccccc2)[C@H](C)CN([C@H](C)CO)C(=O)c2cc(NC(=O)Nc3ccc4c(c3)OCO4)ccc2O1,inactive: 1.04
2,C[C@@H]1CN([C@H](C)CO)C(=O)c2cc(NC(=O)CCC(F)(F)F)ccc2O[C@@H](C)CCCCO[C@@H]1CN(C)CC1CCCCC1,inactive: 0.98
3,CN(C)C(=O)C[C@@H]1C=C[C@@H](NC(=O)C2CCOCC2)[C@H](CO)O1,inactive: 0.983
4,C=CCN1CCC[C@@H]1C(=O)O,inactive: 1.03
5,CN(C)C(=O)C[C@H]1C=C[C@H](NC(=O)C2CC2)[C@H](CO)O1,inactive: 0.959
6,COc1ccc(S(=O)(=O)Nc2ccc3c(c2)OC[C@@H](C)N(C(=O)NC(C)C)C[C@@H](C)[C@H](OC)CN(C)C3=O)cc1,inactive: 0.98
7,Cc1cc(NC(=O)CCCC(=O)O)n(C)n1,inactive: 1.04
8,CNC(=O)Cn1c(=O)c2c(N3CCN(C(=O)C4CC4)CC3)ccnc2n(C)c1=O,inactive: 0.996
9,COc1ccc(NC(=O)N(C)C[C@H]2OCCCC[C@H](C)Oc3ccc(NC(=O)NC4CCCCC4)cc3C(=O)N([C@H](C)CO)C[C@@H]2C)cc1,inactive: 1.01
10,COc1ccc(S(=O)(=O)N(C)C[C@H]2Oc3c(NC(=O)c4cc(C)nn4C)cccc3C(=O)N([C@@H](C)CO)C[C@H]2C)cc1,inactive: 0.968
11,CC(C)NC(=O)N1Cc2cc(C(=O)NC3Cc4ccccc4C3)nc(-c3cccc(-c4cccnc4)c3)c2[C@@H]1CCO,inactive: 1.02
12,Cc1noc(C)c1NC(=O)N(C)C[C@@H]1Oc2ccc(NS(=O)(=O)c3cccs3)cc2CC(=O)N([C@H](C)CO)C[C@H]1C,inactive: 1.02
13,OCc1cn(Cc2ccccc2)nn1,inactive: 1.01
14,C[C@@H]1CN([C@@H](C)CO)C(=O)c2cc(NC(=O)C3CC3)ccc2O[C@@H]1CN(C)C(=O)Nc1ccc2c(c1)OCO2,inactive: 0.987
15,C[C@@H]1CCCCO[C@@H](CN(C)S(=O)(=O)c2ccccc2)[C@@H](C)CN([C@H](C)CO)C(=O)c2cc(NS(=O)(=O)c3ccc(Cl)cc3)ccc2O1,inactive: 1.02
16,O=C(CCCCC(=O)N/N=C/[C@H](O)[C@@H](O)[C@@H](O)[C@H](O)C(=O)O)NO,inactive: 1.01
17,COc1ccc(NC(=O)Nc2ccc3c(c2)C(=O)N([C@H](C)CO)C[C@H](C)[C@H](CN(C)C(=O)NC2CCCCC2)OCCCC[C@H](C)O3)cc1,inactive: 1
18,COc1ccc(S(=O)(=O)N(C)C[C@H]2Oc3ccc(NC(=O)CCCN(C)C)cc3CC(=O)N([C@H](C)CO)C[C@@H]2C)cc1,inactive: 1
19,C[C@H](CO)N1C[C@H](C)[C@@H](CN(C)Cc2ccc(C(=O)O)cc2)Oc2c(NC(=O)c3ccncc3)cccc2C1=O,inactive: 0.968

row,Structure (SMILES),relative growth
1,C[C@@H]1CN([C@@H](C)CO)C(=O)c2cc(NC(=O)Cc3ccccc3)ccc2O[C@@H]1CN(C)C(=O)Nc1ccc(C(F)(F)F)cc1,inactive: 0.967
2,C[C@@H]1CCCCO[C@@H](CN(C)S(=O)(=O)c2ccc(F)cc2)[C@@H](C)CN([C@H](C)CO)C(=O)c2cc(NC(=O)CCC(F)(F)F)ccc2O1,inactive: 0.966
3,CNC[C@@H]1Oc2ccc(NS(=O)(=O)c3cn(C)cn3)cc2C(=O)N([C@H](C)CO)C[C@H]1C,inactive: 1
4,COCCCNC(=O)[C@@]1(Sc2ccc(C)cc2)CC(=O)N(Cc2ccccc2Cl)[C@@H]1c1ccc(CO)cc1,inactive: 1.01
5,C[C@H]1CN([C@@H](C)CO)C(=O)Cc2cc(NC(=O)CCN3CCOCC3)ccc2O[C@@H]1CN(C)S(=O)(=O)c1ccc(F)cc1,inactive: 0.937
6,O=C(C[C@H]1CC[C@@H]2[C@H](COC[C@H](O)CN2S(=O)(=O)c2ccc(Oc3ccccc3)cc2)O1)NCCN1CCCCC1,inactive: 1.03
7,COc1ccc(S(=O)(=O)Nc2ccc3c(c2)C(=O)N([C@@H](C)CO)C[C@H](C)[C@H](CN(C)C(=O)c2ccccc2)OCCCC[C@@H](C)O3)cc1,inactive: 1.03
8,C[C@@H]1CN([C@@H](C)CO)C(=O)c2cc(NC(=O)CCC(F)(F)F)ccc2O[C@@H](C)CCCCO[C@H]1CN(C)S(=O)(=O)c1ccccc1,inactive: 1.02
9,C[C@@H]1CN([C@H](C)CO)S(=O)(=O)c2ccc(Br)cc2O[C@@H]1CN(C)C(=O)c1cnccn1,inactive: 1
10,Cc1noc(C)c1NC(=O)Nc1cccc2c1O[C@@H](CN(C)S(=O)(=O)c1cn(C)cn1)[C@@H](C)CN([C@@H](C)CO)C2=O,inactive: 1
11,C[C@@H]1CN([C@H](C)CO)C(=O)Cc2cc(NC(=O)Cc3ccccc3)ccc2O[C@H]1CN(C)S(C)(=O)=O,inactive: 1.01
12,C[C@@H]1CN([C@@H](C)CO)C(=O)c2cccc(NC(=O)c3nc4ccccc4s3)c2O[C@H]1CN(C)C(=O)Nc1ccc(C(F)(F)F)cc1,inactive: 0.948
13,COc1ccc(S(=O)(=O)Nc2ccc3c(c2)C(=O)N([C@@H](C)CO)C[C@@H](C)[C@@H](CN(C)C(=O)Nc2cccc4ccccc24)OCCCC[C@@H](C)O3)cc1,inactive: 1.05
14,C[C@@H]1CN([C@@H](C)CO)C(=O)c2cc(NC(=O)Cn3cnnn3)ccc2O[C@@H]1CN(C)C(=O)Nc1ccccc1,inactive: 0.99
15,C[C@@H]1CN([C@H](C)CO)C(=O)c2cc(C#CC3CC3)cnc2O[C@@H]1CN(C)S(=O)(=O)c1cccc(F)c1,inactive: 1.02
16,Cc1ccc(S(=O)(=O)N(C)C[C@H]2Oc3ccc(NS(=O)(=O)c4cn(C)cn4)cc3CC(=O)N([C@@H](C)CO)C[C@H]2C)cc1,inactive: 1.03
17,CC(C)C(=O)Oc1ccc(CO)cc1C(CCN(C(C)C)C(C)C)c1ccccc1.O=C(O)C=CC(=O)O (stereo not drawn),inactive: 0.804
18,Cc1ccc(S(=O)(=O)Nc2ccc3c(c2)C(=O)N([C@H](C)CO)C[C@H](C)[C@@H](CN(C)C(=O)Nc2cccc4ccccc24)O3)cc1,inactive: 1.02
19,C[C@H]1CN([C@@H](C)CO)C(=O)Cc2cc(NC(=O)Cc3ccccc3)ccc2O[C@@H]1CN(C)S(=O)(=O)c1cn(C)cn1,inactive: 0.936
